This is an account of results in paper PMC5636987.

Results are given in words; binding and its absence hold for the method and conditions named. Binding seen in cells or lysates may run through a third protein. Some binding calls cover weakened binding; strength is not graded here. For some of these results: Sequences can lack the tags named with a protein.

In assay [1] the target is T1, GST tagged TAK1 (full-length) (human (from the RefSeq entry)) (UniProt O43318).
T1 sequence: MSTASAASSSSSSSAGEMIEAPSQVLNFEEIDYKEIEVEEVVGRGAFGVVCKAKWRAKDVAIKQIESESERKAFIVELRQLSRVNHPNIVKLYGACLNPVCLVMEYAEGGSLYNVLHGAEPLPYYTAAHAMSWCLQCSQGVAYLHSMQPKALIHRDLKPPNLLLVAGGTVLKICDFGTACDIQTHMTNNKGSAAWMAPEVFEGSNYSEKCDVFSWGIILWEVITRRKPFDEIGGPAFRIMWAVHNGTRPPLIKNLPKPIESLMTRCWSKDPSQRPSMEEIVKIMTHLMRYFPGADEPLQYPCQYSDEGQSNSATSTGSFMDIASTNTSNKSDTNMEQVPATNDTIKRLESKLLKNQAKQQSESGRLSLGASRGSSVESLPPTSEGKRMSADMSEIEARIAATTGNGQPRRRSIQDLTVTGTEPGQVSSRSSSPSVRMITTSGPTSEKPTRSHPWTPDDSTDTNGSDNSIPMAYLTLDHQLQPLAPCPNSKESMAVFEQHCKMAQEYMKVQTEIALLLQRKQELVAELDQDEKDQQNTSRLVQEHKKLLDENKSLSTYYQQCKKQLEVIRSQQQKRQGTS
As to the kind of experiment: pull-down; GST-tagged and Flag- or HA-tagged proteins co-expressed in COS-7 cells; lysates (20 mM Tris pH 7.4, 150 mM NaCl, 0.5% Triton X-100) incubated with glutathione sepharose beads at 4 °C; washed three times with 250 mM NaCl, 0.5% Triton X-100; Western blot.

Another assay deals with T2, GST-POPX2 (UniProt P49593).
T2 sequence: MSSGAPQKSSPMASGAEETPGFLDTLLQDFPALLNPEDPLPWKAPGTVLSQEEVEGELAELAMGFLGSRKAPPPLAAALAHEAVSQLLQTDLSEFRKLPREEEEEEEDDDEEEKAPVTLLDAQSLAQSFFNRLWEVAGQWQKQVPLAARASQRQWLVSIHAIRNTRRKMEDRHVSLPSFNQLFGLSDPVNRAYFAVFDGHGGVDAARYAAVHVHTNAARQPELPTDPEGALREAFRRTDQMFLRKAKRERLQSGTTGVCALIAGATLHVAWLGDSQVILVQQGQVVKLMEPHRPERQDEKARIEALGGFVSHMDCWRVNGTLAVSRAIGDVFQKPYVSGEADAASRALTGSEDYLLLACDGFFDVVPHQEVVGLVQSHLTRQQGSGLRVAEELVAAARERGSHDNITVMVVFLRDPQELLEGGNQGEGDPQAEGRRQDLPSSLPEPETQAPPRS
The description is as above.

Assay [2] deals with T3, POPX2 (endogenous) (human (endogenous in U-2OS)) (UniProt P49593).
T3 sequence: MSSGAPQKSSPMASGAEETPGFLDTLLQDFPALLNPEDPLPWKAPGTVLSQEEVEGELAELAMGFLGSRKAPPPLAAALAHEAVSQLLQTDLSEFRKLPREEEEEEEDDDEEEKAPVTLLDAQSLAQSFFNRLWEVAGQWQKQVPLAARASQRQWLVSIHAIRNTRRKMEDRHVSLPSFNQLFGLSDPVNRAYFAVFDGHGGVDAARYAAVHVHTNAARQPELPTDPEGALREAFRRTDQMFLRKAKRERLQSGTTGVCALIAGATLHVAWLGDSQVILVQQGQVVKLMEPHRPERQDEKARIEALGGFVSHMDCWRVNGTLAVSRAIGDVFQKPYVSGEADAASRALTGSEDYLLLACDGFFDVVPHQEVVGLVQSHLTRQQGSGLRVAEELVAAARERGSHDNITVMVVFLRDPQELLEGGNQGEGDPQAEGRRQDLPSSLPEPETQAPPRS
As to the kind of experiment: co-IP; endogenous POPX2 isolated with anti-POPX2 mouse monoclonal antibody from U-2OS cells; co-precipitated proteins detected by Western blot; mouse random IgG as control.

The target of assay [3] is T4, GST-tagged full length PP2Cβ (human) (UniProt O75688).
T4 sequence: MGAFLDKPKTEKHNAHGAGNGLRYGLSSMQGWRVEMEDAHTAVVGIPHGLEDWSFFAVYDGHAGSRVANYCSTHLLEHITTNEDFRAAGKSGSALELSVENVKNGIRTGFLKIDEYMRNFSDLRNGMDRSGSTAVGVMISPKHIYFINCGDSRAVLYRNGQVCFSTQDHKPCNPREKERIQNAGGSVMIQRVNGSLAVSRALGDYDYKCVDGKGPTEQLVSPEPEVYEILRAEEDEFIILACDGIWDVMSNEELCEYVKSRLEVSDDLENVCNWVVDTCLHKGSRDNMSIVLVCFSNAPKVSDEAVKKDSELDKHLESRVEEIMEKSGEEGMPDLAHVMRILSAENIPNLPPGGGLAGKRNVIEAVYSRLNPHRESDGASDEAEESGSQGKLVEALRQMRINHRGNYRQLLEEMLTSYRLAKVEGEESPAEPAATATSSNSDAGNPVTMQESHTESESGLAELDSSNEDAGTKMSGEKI
The experiment in a line: pull-down; GST-tagged and Flag- or HA-tagged proteins co-expressed in COS-7 cells; lysates (20 mM Tris pH 7.4, 150 mM NaCl, 0.5% Triton X-100) incubated with glutathione sepharose beads at 4 °C; washed three times with 250 mM NaCl, 0.5% Triton X-100; Western blot.

The next assay deals with T5, GST-POPX1 (UniProt Q8WY54).
T5 sequence: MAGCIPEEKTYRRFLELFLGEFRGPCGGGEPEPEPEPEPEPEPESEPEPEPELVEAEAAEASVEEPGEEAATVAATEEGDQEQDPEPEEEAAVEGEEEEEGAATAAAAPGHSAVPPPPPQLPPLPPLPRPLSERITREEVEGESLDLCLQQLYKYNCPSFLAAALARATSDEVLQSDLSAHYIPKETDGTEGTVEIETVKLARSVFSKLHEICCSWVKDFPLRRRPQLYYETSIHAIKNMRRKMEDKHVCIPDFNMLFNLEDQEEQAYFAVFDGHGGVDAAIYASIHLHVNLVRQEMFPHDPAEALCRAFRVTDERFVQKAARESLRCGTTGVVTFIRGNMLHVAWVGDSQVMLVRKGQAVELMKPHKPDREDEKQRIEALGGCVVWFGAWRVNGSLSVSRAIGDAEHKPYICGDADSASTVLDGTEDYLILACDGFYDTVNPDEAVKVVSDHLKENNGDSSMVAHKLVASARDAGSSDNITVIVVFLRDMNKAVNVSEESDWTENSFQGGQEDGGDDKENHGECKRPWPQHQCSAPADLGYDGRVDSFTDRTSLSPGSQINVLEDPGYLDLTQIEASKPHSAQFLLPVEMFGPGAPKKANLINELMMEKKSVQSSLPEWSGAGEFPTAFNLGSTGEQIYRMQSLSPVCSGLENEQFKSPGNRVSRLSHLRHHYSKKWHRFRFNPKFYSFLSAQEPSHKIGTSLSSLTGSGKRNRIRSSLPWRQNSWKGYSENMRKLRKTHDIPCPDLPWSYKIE
The description is as above.

For the next assay, the target named is T6, GST-PP2Cα (UniProt P35813).
T6 sequence: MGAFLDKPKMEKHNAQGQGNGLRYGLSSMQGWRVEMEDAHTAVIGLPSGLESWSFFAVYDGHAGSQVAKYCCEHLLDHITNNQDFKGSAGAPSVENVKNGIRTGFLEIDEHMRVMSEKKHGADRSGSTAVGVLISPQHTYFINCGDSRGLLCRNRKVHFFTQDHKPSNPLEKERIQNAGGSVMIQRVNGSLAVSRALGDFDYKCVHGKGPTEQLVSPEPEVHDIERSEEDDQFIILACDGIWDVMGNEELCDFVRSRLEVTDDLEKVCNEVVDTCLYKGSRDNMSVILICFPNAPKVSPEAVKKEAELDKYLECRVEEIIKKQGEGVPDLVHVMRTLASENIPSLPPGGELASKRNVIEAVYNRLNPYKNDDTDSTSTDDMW
The description is as above.

B1: Flag-POPX2 (enzyme, UniProt P49593 1-454)
chain: MSSGAPQKSSPMASGAEETPGFLDTLLQDFPALLNPEDPLPWKAPGTVLSQEEVEGELAELAMGFLGSRKAPPPLAAALAHEAVSQLLQTDLSEFRKLPREEEEEEEDDDEEEKAPVTLLDAQSLAQSFFNRLWEVAGQWQKQVPLAARASQRQWLVSIHAIRNTRRKMEDRHVSLPSFNQLFGLSDPVNRAYFAVFDGHGGVDAARYAAVHVHTNAARQPELPTDPEGALREAFRRTDQMFLRKAKRERLQSGTTGVCALIAGATLHVAWLGDSQVILVQQGQVVKLMEPHRPERQDEKARIEALGGFVSHMDCWRVNGTLAVSRAIGDVFQKPYVSGEADAASRALTGSEDYLLLACDGFFDVVPHQEVVGLVQSHLTRQQGSGLRVAEELVAAARERGSHDNITVMVVFLRDPQELLEGGNQGEGDPQAEGRRQDLPSSLPEPETQAPPRS
Regarding B1, in assay [1], the binding result is “binds”.

B2: Flag-TAB1 (protein, UniProt Q15750-1 1-504)
chain: MAAQRRSLLQSEQQPSWTDDLPLCHLSGVGSASNRSYSADGKGTESHPPEDSWLKFRSENNCFLYGVFNGYDGNRVTNFVAQRLSAELLLGQLNAEHAEADVRRVLLQAFDVVERSFLESIDDALAEKASLQSQLPEGVPQHQLPPQYQKILERLKTLEREISGGAMAVVAVLLNNKLYVANVGTNRALLCKSTVDGLQVTQLNVDHTTENEDELFRLSQLGLDAGKIKQVGIICGQESTRRIGDYKVKYGYTDIDLLSAAKSKPIIAEPEIHGAQPLDGVTGFLVLMSEGLYKALEAAHGPGQANQEIAAMIDTEFAKQTSLDAVAQAVVDRVKRIHSDTFASGGERARFCPRHEDMTLLVRNFGYPLGEMSQPTPSPAPAAGGRVYPVSVPYSSAQSTSKTSVTLSLVMPSQGQMVNGAHSASTLDEATPTLTNQSPTLTLQSTNTHTQSSSSSSDGGLFRSRPAHSLPPGEDGRVEPYVDFAEFYRLWSVDHGEQSVVTAP
For B2, the binding entry in the assay with GST-POPX2 is recorded as “no binding”.

B3: TAK1 (endogenous) (enzyme, UniProt O43318 1-606)
chain: MSTASAASSSSSSSAGEMIEAPSQVLNFEEIDYKEIEVEEVVGRGAFGVVCKAKWRAKDVAIKQIESESERKAFIVELRQLSRVNHPNIVKLYGACLNPVCLVMEYAEGGSLYNVLHGAEPLPYYTAAHAMSWCLQCSQGVAYLHSMQPKALIHRDLKPPNLLLVAGGTVLKICDFGTACDIQTHMTNNKGSAAWMAPEVFEGSNYSEKCDVFSWGIILWEVITRRKPFDEIGGPAFRIMWAVHNGTRPPLIKNLPKPIESLMTRCWSKDPSQRPSMEEIVKIMTHLMRYFPGADEPLQYPCQYSDEGQSNSATSTGSFMDIASTNTSNKSDTNMEQVPATNDTIKRLESKLLKNQAKQQSESGRLSLGASRGSSVESLPPTSEGKRMSADMSEIEARIAATTAYSKPKRGHRKTASFGNILDVPEIVISGNGQPRRRSIQDLTVTGTEPGQVSSRSSSPSVRMITTSGPTSEKPTRSHPWTPDDSTDTNGSDNSIPMAYLTLDHQLQPLAPCPNSKESMAVFEQHCKMAQEYMKVQTEIALLLQRKQELVAELDQDEKDQQNTSRLVQEHKKLLDENKSLSTYYQQCKKQLEVIRSQQQKRQGTS
For B3, in assay [2], the binding result is “binds”.

B4: Flag-TAK1 (enzyme, UniProt O43318-2 1-579)
chain: MSTASAASSSSSSSAGEMIEAPSQVLNFEEIDYKEIEVEEVVGRGAFGVVCKAKWRAKDVAIKQIESESERKAFIVELRQLSRVNHPNIVKLYGACLNPVCLVMEYAEGGSLYNVLHGAEPLPYYTAAHAMSWCLQCSQGVAYLHSMQPKALIHRDLKPPNLLLVAGGTVLKICDFGTACDIQTHMTNNKGSAAWMAPEVFEGSNYSEKCDVFSWGIILWEVITRRKPFDEIGGPAFRIMWAVHNGTRPPLIKNLPKPIESLMTRCWSKDPSQRPSMEEIVKIMTHLMRYFPGADEPLQYPCQYSDEGQSNSATSTGSFMDIASTNTSNKSDTNMEQVPATNDTIKRLESKLLKNQAKQQSESGRLSLGASRGSSVESLPPTSEGKRMSADMSEIEARIAATTGNGQPRRRSIQDLTVTGTEPGQVSSRSSSPSVRMITTSGPTSEKPTRSHPWTPDDSTDTNGSDNSIPMAYLTLDHQLQPLAPCPNSKESMAVFEQHCKMAQEYMKVQTEIALLLQRKQELVAELDQDEKDQQNTSRLVQEHKKLLDENKSLSTYYQQCKKQLEVIRSQQQKRQGTS
In the case of B4, the binding result (in assay [3]; in the assay with GST-POPX1; with GST-PP2Cα; with GST-POPX2) was “binds” throughout.
